Assay results as given in the RNAGym collection of RNA variant scans (doi:10.1093/nar/gkz1192).
Read counts are not given, so values of variants with three or more changes are uncertain.

B1: CPEB3 Ribozyme (parent)
chain: UAACAGGGGGCCACAGCAGAAGCGUUCACGUCGCAGCCCCUGUCAGAUUCUGGUGAAUCUGCGAAUUCUGCUGUAUAUCUC

Variants of: B1
Experiment: self-cleavage, relative activity (ratio to wild type); higher = more cleavage; in vitro, sequencing
In short: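 Relative activity compares each variant's cleaved/total read fraction with that of the unmutated ribozyme. To get these fractions, barcoded CPEB3 ribozyme libraries from rounds of error-prone PCR were transcribed with T7 RNA polymerase for 5 hours at 37°C and then given 15 min of DNase I treatment before EDTA was added. The RNAs were reverse transcribed with template switching and sequenced on Illumina, and DNA sequencing linked barcodes to variants. A minimum of 5 reads applied, and three batches were averaged.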

| Variant | self-cleavage |
| --- | --- |
| A5G U25C U26C U43A A56U U80A | 0.06 |
| A5G U31A G33C A35G | 0.12 |
| A5G G55A A57G | 0.38 |
| A5G U31C A47G | 0.41 |
| A5G U31A A57G C81A | 0.47 |
| A5G G30C C40G | 0.22 |
| A5G G8U A18U | 0.5 |
| A5G U41A G55A C68A U72C | 0.15 |
| A5G G10A U26C C27U U54C U66C U69C | 0.06 |
| A5G U31A C39G U69A | 0.23 |
| A5G G30A G42U U58C U80C | 0.23 |
| A5G G9U A18U | 0.36 |
| A5G U49C A64G U78C | 0.61 |
| A5U A13G A20U | 0.24 |
| A5G U49C U69C U74C U78C | 0.05 |
| A5G G9C A20G A28G A47G | 0 |
| A5G U48C A56G U80C | 0.36 |
| A5G U41C U54C U76C | 0.33 |
| A5U A13G A18G U43C | 0.42 |
| A5G G33A A35G A56U U76C | 0.07 |
| A5G U41C A75G | 0.5 |
| A5G G9A U51A G73U | 0.08 |
| A5G U25A C62U | 0.09 |
| A5G U26A A35U A45G U49C | 0.07 |

| Variant | self-cleavage |
| --- | --- |
| A5G G9A U26C C29G G33A C39U | 0.06 |
| A5G U26A U54C | 0.43 |
| A5G U41G U54C U76A | 0.12 |
| A5G U26C A45G | 0.38 |
| A5G G24A A65G | 0.39 |
| A5G G16C U26C A77G | 0.43 |
| A5G U48C C62U A65G | 0.14 |
| A5G G6U A13U U41C C62A | 0.45 |
| A5G G7U G9A A20G C71A U72C | 0.06 |
| A5G G9A A45U A77U | 0.12 |
| A5G G16U A21G A35G | 0.44 |
| A5U A13G U25C U58C | 0.43 |
| A5G U49A U60A U67G | 0.1 |
| A5G U48C U66G | 0.16 |
| A5G G9U A21G C59A A65G | 0.31 |
| A5G G8A U54G G73A | 0.66 |
| A5G G8C A20G U76A | 0.31 |
| A5G U51C A57G U69A U74A U78C | 0.23 |
| A5G U25C C37A A47G U54C A56C U78C | 0.04 |
| A5G U51C U58C | 0.18 |
| A5G U51C U58A | 0.19 |
| A5G U43G U76G U80C | 0.32 |
| A5U A13G A18G U25C A56U | 0.08 |
| A5G U48C U54A U74C A75C | 0.98 |

| Variant | self-cleavage |
| --- | --- |
| A5G U31G A45G | 0.82 |
| A5U A13G G46A | 0.48 |
| A5G G36U U41A A45G A56G U80C | 0.2 |
| A5G G6U A47G U80C | 1.07 |
| A5G U48C A65G | 0.28 |
| A5G U48A A64G U72A | 0.17 |
| A5G U41C A57G U78C | 0.32 |
| A5U A13G A20U U25C U31C A56G A65G | 0.07 |
| A5G U31C U43C U49C | 0.25 |
| A5G G9U G33A U43C U69A | 0.15 |
| A5G G7U A15U A47G A57G C71U | 0.04 |
| A5G G33C A56U | 0.25 |
| A5G U26C C29U U41C A56G | 0.33 |
| A5G U58A G61A | 0.31 |
| A5G U31C U43C A57G U72A U80A | 0.07 |
| A5G U26A U31C A77G | 0.1 |
| A5U A13G G53A U72C A75G | 1.07 |
| A5G G9U C40U A65G | 0.04 |
| A5G U48A U54C A65G | 0.07 |
| A5G U48C U54G | 0.36 |
| A5G G7C A45G U58C A64G | 0.05 |
| A5G U43A A45G A57U U58A | 0.08 |
| A5G G9U A13G U48C G53A | 0.04 |
| A5G U51C U66A U78C | 0.1 |

| Variant | self-cleavage |
| --- | --- |
| A5G U25G A77G | 0.37 |
| A5G U26C G42A U43C | 0.57 |
| A5G U31C A64U | 0.25 |
| A5G U26C C34U A35G A56G U58G | 0.08 |
| A5G U41G U49C A65G | 0.02 |
| A5G G9A U54A | 0.51 |
| A5G G7U U74C | 0.6 |
| A5G G8U A13G A20U G33C U54C A65G | 0.04 |
| A5G G53A U67C | 0.33 |
| A5G U54A C79U | 1.02 |
| A5G U31G A45U C62U U76C | 0.25 |
| A5G G10A G53A U74A | 0.94 |
| A5G U25C U54C A65G U78C | 0.06 |
| A5G U43C U58C C59G | 0.08 |
| A5G U41A U76C | 0.35 |
| A5G U26C U31C C40U U60G U69A | 0.19 |
| A5G U31C A56G U76C A77G | 0.22 |
| A5G U48C A56U U67A U74A U78C | 0.12 |
| A5G U25C U66G U67C | 0.1 |
| A5G U43A U69A | 0.27 |
| A5G U26C U78A | 0.59 |
| A5G U49A A57G | 0.19 |
| A5G U54C A65G U72C | 0.23 |
| A5G G55A C71U | 0.14 |

| Variant | self-cleavage |
| --- | --- |
| A5G U49C U60A U78A U80C | 0.07 |
| A5G G7A G9A | 0.57 |
| A5G G16C A18G | 0.67 |
| A5G U31C A45U A65U | 0.1 |
| A5U A13G A56G A65G U74C U80C | 0.37 |
| A5G U31C C38A U43C U72A | 0.19 |
| A5G U25C U69G U72C A75U | 0.05 |
| A5G G8A A15U A45U | 0.34 |
| A5G G9A A13U A21G U26A U49C | 0.32 |
| A5G U26C A35U U43C U54A | 0.33 |
| A5G U26C U51A U72G | 0.17 |
| A5G U51G A57G U80C | 0.05 |
| A5G U41G U51C U74C | 0.46 |
| A5G U31G C34U | 0.43 |
| A5G G36A U58C | 0.28 |
| A5G G7A A15C G30A G42A | 0.1 |
| A5G G24U U48C C79U U80G | 0.47 |
| A5G U31C A56G | 0.3 |
| A5G U25C C40U U51A U60C | 0.34 |
| A5G U31A U72A | 0.27 |
| A5G U31A U72C | 0.4 |
| A5G G16A U26C | 0.18 |
| A5G U26C G73U U76C | 0.72 |
| A5G U41C U66C | 0.32 |

| Variant | self-cleavage |
| --- | --- |
| A5G U51C A75G | 0.66 |
| A5G U41C U69G | 0.15 |
| A5U A13G A20G A56G | 0.46 |
| A5G U43C A75G | 0.32 |
| A5G G10C A20G U60C G63A U72G U78C | 0.08 |
| A5G U26C C39A U58A A65U | 0.09 |
| A5G G7A U54A A56G | 0.31 |
| A5U A13C A28U | 1.1 |
| A5G U43A A57U | 0.57 |
| A5G G9U A13G A28G C44U | 0.33 |
| A5G U67C U69C | 0.27 |
| A5G G22A U60A U80A | 0.08 |
| A5G U26A A35G A47G A57G A64G | 0.59 |
| A5G G9A A56U | 0.11 |
| A5G U66C A77U | 0.13 |
| A5G U31A U43A U49G A57G | 0.24 |
| A5U A13G U25C U49A U74C U78C | 0.04 |
| A5U A13G U31A A45G | 0.66 |
| A5G G6U A45G C50G G61A U69C | 0.03 |
| A5G G10A C23U A35G U43C A57G A65G | 0.17 |
| A5U A13G A28U U54A | 0.9 |
| A5G U48C U80C | 0.48 |
| A5G G30U U31C U74C | 0.47 |
| A5G G7C G30A U43C U69C | 0.06 |

| Variant | self-cleavage |
| --- | --- |
| A5G U25C U43C U49A G61C U74A | 0.05 |
| A5U A13G A28G A64U | 0.22 |
| A5G U41C U49C U54C | 0.18 |
| A5G G19A A45G | 0.21 |
| A5G G10A A13G A21G C50A U58C | 0.06 |
| A5U A13G A15G U51A U54C U66C | 0.06 |
| A5G G30U U49C G73A | 0.13 |
| A5G G10A C27U C37A A45G U54A U67A | 0.06 |
| A5G U25A U48A A65G | 0.26 |
| A5G U48C A56U A57G | 0.58 |
| A5G U26A U80C | 0.58 |
| A5G U31C U60C G70A U72C | 0.08 |
| A5G U31A U41A U80C | 0.08 |
| A5G U43C A45U U60C A65G | 0.22 |
| A5G U41C A56G A64G | 0.05 |
| A5G G9A A21G A45U U49C A65G | 0.04 |
| A5G G8A U43A | 0.4 |
| A5G G8A A21U U51A | 0.07 |
| A5G U43C U74C | 0.41 |
| A5G U49C U51A A64U | 0.14 |
| A5G G33A U60C A64G | 0.07 |
| A5G U31A A35U | 0.31 |
| A5G U51C U80A | 0.56 |
